Test results taken from publication PMC4336329 (PLoS ONE, 2015).
Among all 310,000 compounds or so, about 14,000 (4.5%) showed an effect of 50% or more. Effects have a minus sign here. Some of the results follow.

These compounds were tested against human ether-à-go-go-related gene (hERG) potassium channel (human, UniProt Q12809) (assay: primary screen, population patch clamp on CHO cells stably expressing hERG).
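Note: peak tail current of the secondary pulse compared with the same well before compound.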

Chain of human ether-à-go-go-related gene (hERG) potassium channel (Q12809 whole entry, looked up): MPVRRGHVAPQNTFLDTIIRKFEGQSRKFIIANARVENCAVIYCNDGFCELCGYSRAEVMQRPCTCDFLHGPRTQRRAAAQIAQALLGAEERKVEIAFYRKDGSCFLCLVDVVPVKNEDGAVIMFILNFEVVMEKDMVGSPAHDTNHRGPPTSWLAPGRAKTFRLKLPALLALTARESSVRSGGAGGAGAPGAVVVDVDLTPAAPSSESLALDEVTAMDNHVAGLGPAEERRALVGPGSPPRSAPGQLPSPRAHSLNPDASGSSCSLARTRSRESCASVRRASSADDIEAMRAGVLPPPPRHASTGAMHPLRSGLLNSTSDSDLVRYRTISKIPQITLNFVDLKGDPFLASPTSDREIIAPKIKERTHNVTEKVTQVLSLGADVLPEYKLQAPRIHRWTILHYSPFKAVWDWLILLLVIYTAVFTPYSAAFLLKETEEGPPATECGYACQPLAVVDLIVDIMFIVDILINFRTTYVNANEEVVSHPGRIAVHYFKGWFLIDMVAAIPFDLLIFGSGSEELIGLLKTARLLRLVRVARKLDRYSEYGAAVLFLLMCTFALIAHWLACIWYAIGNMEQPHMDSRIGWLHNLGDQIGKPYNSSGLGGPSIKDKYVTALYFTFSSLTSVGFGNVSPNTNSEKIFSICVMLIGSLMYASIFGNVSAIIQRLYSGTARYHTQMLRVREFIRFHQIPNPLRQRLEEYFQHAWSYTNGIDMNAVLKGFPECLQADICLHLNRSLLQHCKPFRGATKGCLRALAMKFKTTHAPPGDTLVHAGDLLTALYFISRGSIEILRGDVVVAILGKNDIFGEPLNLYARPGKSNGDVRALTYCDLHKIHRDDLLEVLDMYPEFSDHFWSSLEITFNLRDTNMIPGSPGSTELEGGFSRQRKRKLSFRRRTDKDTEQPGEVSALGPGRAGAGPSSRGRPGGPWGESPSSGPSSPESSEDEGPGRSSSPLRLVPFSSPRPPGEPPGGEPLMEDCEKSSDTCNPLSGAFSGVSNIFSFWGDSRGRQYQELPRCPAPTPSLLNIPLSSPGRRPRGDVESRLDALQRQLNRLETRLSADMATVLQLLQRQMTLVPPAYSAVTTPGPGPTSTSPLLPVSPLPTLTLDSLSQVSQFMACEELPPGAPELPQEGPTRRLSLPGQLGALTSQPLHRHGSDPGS

| Compound | hERG current change (%, negative = inhibition) at 10uM [%] |
| --- | --- |
| Cc1ccc(CNS(=O)(=O)c2ccc3c(c2)OCCO3)cc1 | -5.68 |
| CCCCCC(=O)O[C@]1(C(C)=O)CC[C@H]2[C@@H]3CCC4=CC(=O)CC[C@]4(C)[C@H]3CC[C@@]21C | 15.5 |
| CCOC(=O)/C(C#N)=C/c1ccc(OCC(=O)Nc2cc(C)ccc2C)c(OC)c1 | 15.3 |
| Cc1ccc2c(c1)nc(NCCO)n2C.Cl | 2.51 |
| CCOC(=O)c1c(NC(=O)Cn2nnc(-c3ccccc3Cl)n2)sc(C)c1C | 13.8 |
| O=C(Nc1cc(C(F)(F)F)ccc1Cl)c1ccncc1 | 2.63 |
| CC(=O)c1ccc(Nc2c3c(nc4ccccc24)CCCC3)cc1 | -53.3 |
| COc1ccc(N2C(=NC(=O)CCCc3ccccc3)SC3CS(=O)(=O)CC32)cc1 (centres unmarked) | 19.4 |
| CC(C)CCN1CC(=O)N2[C@@H](Cc3c([nH]c4ccccc34)C2(C)C)C1=O | 5.85 |
| O=C(N=Nc1c(O)[nH]c2ccccc12)c1cccs1 | 30.9 |
| C[n+]1c(-c2ccccc2)cc(-c2ccc(Cl)cc2)cc1-c1ccccc1.[O-][Cl+3]([O-])([O-])[O-] | -84.1 |
| CC1CN(S(=O)(=O)c2ccc(Cl)c(C(F)(F)F)c2)CC(C)O1 (centres unmarked) | 6.26 |
| CCn1c(SCC(=O)NC(C)(C)C)nnc1-c1ccccn1 | 17.1 |
| COc1ccc(-n2c(=S)[nH]c3cc(C(=O)NCc4ccc(F)cc4)ccc3c2=O)c(OC)c1 | 8.03 |
| CN1Cc2cc(C(=O)c3cc(Cl)cc(CSc4ncccn4)c3O)cnc2NC1=O | 4.17 |
| CCN(CC(=O)Nc1c(F)cccc1F)C(=O)c1ccc2c(c1)OCCO2 | 6.51 |
| COc1cc(-c2cc(C(=O)NCc3ccc(S(N)(=O)=O)cc3)c3ccccc3n2)cc(OC)c1OC | 12.1 |
| Cc1cccc(CN2CCC(N3CC(C)OC(C)C3)CC2)c1.O=C(O)C(=O)O (centres unmarked) | 17.1 |
| CCSc1nc2ccccc2c(=O)n1Cc1ccc(F)cc1 | 14 |
| Cc1ccc(CNC(=O)CCC2CCCN(Cc3c(C)nn(C(C)C)c3C)C2)o1 (centres unmarked) | -16.6 |
| COc1ccc(C(=O)Nc2ccnn2C2CCN(C(=O)c3cccnc3)CC2)cc1 | 12.3 |
| CCOC(=O)c1ccc(OC(=O)CCCCCN=C(N)N)cc1.CS(=O)(=O)O | -4.82 |
| Nc1ccccc1-c1nnc(SCc2ccccc2F)[nH]c1=O | 9.95 |
